In the supplement of paper PMC12217912:
The list shows a part of the results. The full chains were built here from the parent and the listed change. Values near 0.05 are background.

B1: TEV protease; numbered along this chain (parent)
chain: MGESLFKGPRDYNPISSSICHLTNESDGHTTSLYGIGFGPFIITNKHLFRRNNGTLVVQSLHGVFKVKDTTTLQQHLVDGRDMIIIRMPKDFPPFPQKLKFREPQREERICLVTTNFQTKSMSSMVSDTSCTFPSGDGIFWKHWIQTKDGQCGSPLVSTRDGFIVGIHSASNFTNTNNYFTSVPKNFMELLTNQEAQQWVSGWRLNADSVLWGGHKVFMVKPEEPFQPVKEATQL

Variants of: B1
Assay: raw area under fraction-flipped curve 0-4 h after induction (AUC4h, not background-subtracted), DNA-recorder readout of cleavage of the substrate (dimensionless); higher = more cleavage of the substrate by the protease variant
Conditions: temperature: 34 °C; time window: 0-4 h after rhamnose induction
Procedure: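 In vivo DNA recorder in E. coli TOP10(DE3) ΔrhaA at 34 °C. Each TEVp single-site mutant (parent TEVp 0) is paired with a single-site variant of the 7-mer TEVs (canonical ENLYFQ|S). The substrate sits between flexible linkers in a Bxb1-sfGFP-TEVs-SsrA fusion, so cleavage stabilises Bxb1 and speeds flipping of a recombination array, read by NGS. The value is the raw area under the fraction-flipped curve over 0-4 h after rhamnose induction (AUC4h), with ≥20 reads per time point. It is not background-subtracted; inactive controls average about 0.047.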
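Further: Bxb1 expression induced with 0.2% (w/v) L-rhamnose at OD600 near 0.5, cultures sampled hourly, flipped fraction per protease–substrate barcode pair counted by paired-end Illumina sequencing.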

Row | Variant | area with substrate ENLYFCS | area with substrate ENLYFDS | area with substrate ENLYFES | area with substrate ENLYFFS | area with substrate ENLYFGS | area with substrate ENLYFHS | area with substrate ENLYFIS | area with substrate ENLYFKS | area with substrate ENLYFLS | area with substrate ENLYFMS | area with substrate ENLYFNS | area with substrate ENLYFPS | area with substrate ENLYFRS | area with substrate ENLYFSS | area with substrate ENLYFTS | area with substrate ENLYFVS | area with substrate ENLYFWS | area with substrate ENLYFYS | area with substrate ENLYFAS
1 | S16E | 0.0455 | 0.037 | 0.0677 | 0.07 | 0.0607 | 0.0674 | 0.0562 | 0.0579 | 0.0642 | 0.068 | 0.0606 | 0.0599 | 0.0534 | 0.0927 | 0.0702 | 0.0523 | 0.0604 | – | –
2 | P40R | 0.0694 | – | 0.071 | 0.0666 | 0.061 | – | 0.0518 | 0.0598 | – | 0.0811 | 0.0589 | – | 0.0697 | 0.0581 | 0.0587 | – | – | 0.0548 | –
3 | P40H | 0.0618 | 0.0611 | 0.0674 | 0.0514 | 0.0586 | 0.0663 | 0.0492 | 0.0655 | – | 0.0694 | – | 0.0609 | 0.0762 | – | 0.0597 | 0.0469 | 0.0531 | 0.0658 | –
4 | T30C | 0.0619 | 0.0549 | 0.0661 | 0.0616 | 0.0598 | – | 0.0495 | – | 0.055 | 0.0665 | 0.0528 | 0.0567 | 0.0587 | – | – | 0.0535 | 0.0494 | 0.0579 | –
5 | unchanged | 0.0593 | 0.0591 | 0.0657 | 0.0683 | 0.0593 | 0.0605 | 0.0572 | 0.0614 | 0.0602 | 0.0671 | 0.0643 | 0.059 | 0.0595 | 0.0592 | 0.0596 | 0.0549 | 0.0577 | 0.0579 | 0.0596
6 | T192E | 0.0562 | 0.0561 | – | 0.064 | 0.053 | 0.0584 | 0.0666 | – | – | 0.0763 | 0.0676 | – | 0.0475 | – | 0.0514 | – | 0.056 | 0.0637 | 0.0693
7 | T192H | 0.0602 | 0.0561 | 0.0656 | 0.0635 | 0.0633 | 0.0633 | 0.0473 | 0.0601 | 0.0694 | 0.0468 | – | 0.0594 | 0.0645 | 0.0563 | 0.0583 | 0.0863 | 0.0616 | – | 0.0807
8 | T192G | 0.0867 | 0.0546 | 0.0694 | 0.061 | – | – | 0.0543 | – | – | 0.0788 | – | – | 0.076 | – | 0.0603 | 0.0807 | 0.0524 | 0.0537 | 0.0437
9 | T192Q | 0.0557 | – | 0.072 | 0.0602 | 0.0696 | – | 0.0565 | 0.0318 | – | 0.0651 | 0.068 | 0.0658 | 0.0622 | 0.0656 | 0.0577 | 0.0551 | 0.0614 | 0.0607 | 0.0572
10 | N13V | 0.051 | 0.0457 | 0.063 | 0.0685 | 0.0529 | 0.0627 | 0.0603 | 0.0659 | 0.0447 | 0.0646 | 0.0648 | 0.063 | 0.0594 | 0.0561 | 0.0488 | – | 0.0812 | 0.0612 | –
11 | D208V | 0.0775 | 0.0504 | 0.0528 | 0.0656 | – | 0.0676 | 0.0609 | – | 0.0557 | 0.0585 | 0.0542 | 0.0624 | 0.0565 | 0.0622 | 0.0596 | – | 0.072 | 0.0511 | 0.0637
12 | D208S | – | – | 0.0743 | – | – | – | – | – | – | 0.0712 | – | – | 0.0442 | 0.0558 | 0.0676 | – | – | – | 0.0635
13 | D208Q | 0.056 | – | 0.0559 | 0.0667 | – | 0.0545 | 0.0563 | 0.0548 | – | 0.0645 | 0.0556 | 0.0584 | 0.0559 | 0.0514 | 0.0524 | 0.0555 | – | 0.0475 | 0.0629
14 | K46S | 0.0747 | 0.0493 | 0.0653 | 0.0699 | 0.0571 | 0.0592 | 0.0573 | 0.058 | – | 0.0588 | – | 0.0616 | 0.0605 | 0.054 | 0.0592 | 0.0683 | 0.0618 | – | –
15 | Q198K | – | 0.0551 | 0.0705 | 0.0622 | 0.0687 | 0.0393 | 0.053 | 0.0635 | – | 0.0667 | – | 0.087 | – | 0.0907 | – | – | 0.0498 | 0.0552 | 0.0102
16 | K221R | 0.0496 | 0.0629 | 0.0625 | 0.0703 | – | 0.0553 | 0.055 | 0.0651 | – | 0.0608 | 0.066 | 0.0561 | 0.0547 | 0.0656 | 0.0586 | 0.0158 | 0.0456 | 0.0651 | 0.0536
17 | R204K | – | – | 0.0675 | 0.0855 | – | – | 0.0597 | 0.0643 | – | 0.0742 | – | – | 0.0691 | 0.0652 | 0.0554 | – | 0.0417 | 0.0508 | 0.054
18 | S32Y | 0.0632 | 0.0444 | – | 0.0529 | 0.06 | 0.0722 | 0.0473 | 0.0639 | – | 0.0678 | 0.0584 | 0.056 | 0.0558 | 0.0741 | 0.0632 | 0.0534 | 0.063 | – | –
19 | S32I | 0.0543 | – | 0.0625 | 0.0531 | 0.0729 | – | 0.0602 | 0.0705 | 0.0594 | 0.071 | 0.0711 | 0.0628 | – | – | 0.0662 | – | 0.0681 | – | –
20 | S32P | 0.0561 | 0.0315 | 0.0632 | 0.046 | 0.0482 | 0.0509 | 0.0564 | 0.0653 | 0.0577 | 0.0557 | 0.035 | 0.0538 | 0.0711 | 0.0502 | 0.0587 | 0.0535 | – | 0.0536 | –
21 | V200T | – | – | 0.0683 | 0.0638 | – | – | 0.053 | 0.074 | 0.0656 | – | – | 0.0734 | – | – | – | – | – | 0.0634 | 0.0538
22 | V200P | 0.0708 | – | 0.0565 | – | 0.0694 | – | 0.0647 | – | – | 0.102 | 0.058 | 0.0531 | 0.0646 | – | – | – | – | – | 0.0606
23 | V200L | – | 0.0475 | 0.0521 | 0.0814 | – | 0.082 | 0.0458 | – | – | – | 0.0549 | 0.0621 | – | 0.049 | – | – | – | – | 0.0542
24 | V200A | – | 0.059 | – | – | – | – | – | – | – | – | – | 0.0603 | – | – | 0.0702 | – | – | 0.051 | 0.0611
25 | V200H | 0.0601 | 0.0713 | 0.065 | 0.0699 | 0.0577 | 0.0069 | 0.0613 | 0.0766 | 0.0633 | 0.0389 | 0.0436 | 0.0634 | 0.0524 | 0.0588 | 0.0482 | 0.0087 | 0.0537 | – | 0.0544
